Assay results: article PMC4336329 (PLoS ONE, 2015)
Screen size: about 310,000 compounds; about 2,200 (0.71%) showed an effect of 50% or more. Effects have a minus sign here. Some of the results follow.

Biological target: human ether-à-go-go-related gene (hERG) potassium channel (human, UniProt Q12809)
Assay: primary screen, population patch clamp on CHO cells stably expressing hERG

human ether-à-go-go-related gene (hERG) potassium channel, sequence (Q12809 whole entry, looked up): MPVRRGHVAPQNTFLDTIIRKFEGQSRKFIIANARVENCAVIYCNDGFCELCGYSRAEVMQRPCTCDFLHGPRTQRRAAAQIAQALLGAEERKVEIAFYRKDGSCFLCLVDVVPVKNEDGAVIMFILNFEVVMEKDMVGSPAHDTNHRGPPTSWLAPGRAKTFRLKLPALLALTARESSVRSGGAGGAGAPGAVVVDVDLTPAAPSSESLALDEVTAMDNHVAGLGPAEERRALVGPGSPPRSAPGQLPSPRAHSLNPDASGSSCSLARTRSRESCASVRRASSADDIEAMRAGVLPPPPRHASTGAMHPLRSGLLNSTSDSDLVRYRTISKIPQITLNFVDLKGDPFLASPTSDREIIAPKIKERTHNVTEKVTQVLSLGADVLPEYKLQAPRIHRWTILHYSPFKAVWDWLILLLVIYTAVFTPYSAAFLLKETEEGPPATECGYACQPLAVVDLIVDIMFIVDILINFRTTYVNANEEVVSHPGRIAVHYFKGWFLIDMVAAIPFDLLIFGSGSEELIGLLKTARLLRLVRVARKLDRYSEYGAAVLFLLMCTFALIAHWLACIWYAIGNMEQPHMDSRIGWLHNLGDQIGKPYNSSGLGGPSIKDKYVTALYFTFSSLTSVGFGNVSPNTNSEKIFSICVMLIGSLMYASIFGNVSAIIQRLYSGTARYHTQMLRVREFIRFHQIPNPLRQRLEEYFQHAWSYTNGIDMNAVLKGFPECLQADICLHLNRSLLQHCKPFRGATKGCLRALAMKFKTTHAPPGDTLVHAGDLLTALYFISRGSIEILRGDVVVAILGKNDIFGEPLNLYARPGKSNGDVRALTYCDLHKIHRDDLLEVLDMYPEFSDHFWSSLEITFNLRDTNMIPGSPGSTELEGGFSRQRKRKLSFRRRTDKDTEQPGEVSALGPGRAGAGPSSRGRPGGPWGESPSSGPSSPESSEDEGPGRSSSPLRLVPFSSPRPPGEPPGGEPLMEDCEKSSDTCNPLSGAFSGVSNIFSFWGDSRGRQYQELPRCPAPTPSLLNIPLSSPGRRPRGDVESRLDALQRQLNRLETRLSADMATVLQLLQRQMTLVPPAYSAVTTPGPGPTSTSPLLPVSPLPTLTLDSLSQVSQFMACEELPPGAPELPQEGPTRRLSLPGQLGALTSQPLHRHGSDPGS

Row | SMILES | hERG current change (%, negative = inhibition) at 1uM
1 | CCC(=C/c1sc2ccc3ccccc3c2[n+]1C)/C=C1\Sc2ccc3ccccc3c2N1C.[Cl-] | 7.07%
2 | COc1ccc(CNC(=O)C(c2cccs2)N(C(=O)c2csnn2)C2CC2)cc1 (stereo not drawn) | 7.37%
3 | COC(=O)c1c(NC(=O)COC(=O)c2ccc(C)s2)sc2c1CCCCC2 | 11%
4 | COc1ccccc1C(=O)NC(=O)COC(=O)C1CC1C (stereo not drawn) | 3.94%
5 | CC(=O)c1ccc(N2CCC(C)CC2)c(F)c1 | 17.4%
6 | O=C(NCc1ccc(N2CCCC2=O)cc1)Nc1cccc2ccccc12 | -1.78%
7 | COc1ccc(-c2cc(CCCC(=O)NCc3ccccn3)no2)cc1 | 8.27%
8 | Cc1cc(C)nc(N2CCCC(C(=O)NNC(=O)c3ccncc3)C2)n1 (stereo not drawn) | 7.59%
9 | CC(=O)N=c1sc(C(C)(C)C)c(C)n1C | 2.16%
10 | CC(=O)C(C(C)=O)c1c(Cl)c(O)c(O)c2c(C(=O)c3ccccc3)coc12 | 7.84%
11 | O=C(/C=C/c1ccco1)N/C(=C\c1ccco1)C(=O)NCCc1nc2ccccc2[nH]1 | 10.4%
12 | Cc1ccnc(NC(=O)c2ccc([N+](=O)[O-])s2)c1 | -0.627%
13 | CC(C)CCNC1=CC(=O)CC(c2ccccc2)C1 (stereo not drawn) | -0.257%
14 | COc1ccc(CNS(=O)(=O)c2c(C(=O)N3CCCCCC3)c(C)n(C)c2C)cc1 | 10.5%
15 | Cc1ccc(Oc2ccc(OCC(=O)NC3CCS(=O)(=O)C3)cc2)cc1 (stereo not drawn) | 9.74%
16 | Cc1ccc2c(c1)N(S(=O)(=O)c1cc(-c3cc(C)no3)ccc1C)CCO2 | 11.2%
17 | CC(/C=C(\C)Nc1ccccc1)=[NH+]c1ccccc1.[O-][Cl+3]([O-])([O-])[O-] | 24.9%
18 | O=S(=O)(Nc1ccccc1)c1ccc2c(c1)CCO2 | 1.89%
19 | O=c1[nH]c(=O)n(Cc2ccccc2)c(O)c1C=NCCN1CCNCC1 | 13.5%
20 | Cc1cccc(N(C(=O)CNC(=O)c2ccco2)C(C(=O)NC2CCCC2)c2ccncc2)c1 (stereo not drawn) | 16.4%
21 | CN1CCN(c2ccc(NC(=O)CSc3nnnn3-c3ccccc3Cl)cc2)CC1 | -8.64%
22 | COc1ccc(NC(=O)c2cc(-c3ccc(C)cc3)on2)cc1 | 12.8%

Row | SMILES | hERG current change (%, negative = inhibition) at 1uM
23 | COCCNC(=O)C(c1ccc(C)cc1)N(C(=O)CCC(=O)Nc1ccccn1)c1ccc(C)cc1 (stereo not drawn) | 11.2%
24 | CC(C)(C)OC(=O)N1CCC[C@H]1c1nnc(SCc2ccccc2F)o1 | -0.443%
25 | Cc1cccc(C(=O)N[C@H](C(=O)Nc2nnc(C3CC3)s2)C(C)C)c1 | 2.92%
26 | CCc1noc(C)c1C(=O)N1CC(C)SC1=Nc1ccc(Cl)cc1 (stereo not drawn) | -1.52%
27 | N#C/C(C(=O)N1CCCCC1)=C1\Nc2ccccc2S1 | 3.99%
28 | CCCc1nc2oc3c(NCc4ccccn4)ncnc3c2c2c1COC(C)(C)C2 | -10.8%
29 | O=C1NCCCC2c3c(cc(Br)c(O)c3Br)OC12N1CCCCC1 (stereo not drawn) | 9.15%
30 | CC(O)[C@H]1CNCCN1CCc1cccc(F)c1 (stereo partly drawn) | 14.4%
31 | CCc1cccc(NC(=O)C2CCCN(c3cnccn3)C2)c1 (stereo not drawn) | 8.24%
32 | O=C(Nc1ccccc1)N1C2CCC1CC(O)(c1cccnc1)C2 (stereo not drawn) | 13.4%
33 | Cc1cccn2c(=O)c(C=NCc3ccco3)c(Nc3ccc(SC(F)F)cc3)nc12 | -2.54%
34 | Cc1ccc(-n2nc3c(c2NC(=O)c2ccc(S(=O)(=O)N4CCOCC4)cc2)CSC3)c(C)c1 | 1.39%
35 | CC(C)C(=O)Nc1nnc(CCc2ccccc2)s1 | 10.3%
36 | Cc1ccc(CCNC(=O)C2CCC(=O)N(CC3CCCCC3)C2)cc1 (stereo not drawn) | -4.63%
37 | COc1ccc(C(=O)CCc2ccccc2)cc1 | 11.7%
38 | CN(C)S(=O)(=O)c1cccc(-c2nnc(SCC(=O)NCCCCCC(=O)O)n2-c2ccc(F)cc2)c1 | 19.4%
39 | Cn1cccc1/C=C1/C(=O)NC(=O)N(C(C)(C)C)C1=O | 8.05%
40 | Cc1cc(C)c(NC(=O)CSc2nnc(SCC(=O)Nc3c(C)cc(C)cc3C)n2N)c(C)c1 | 13.9%
41 | O=C(Nc1ccc(N2CCN(C(=O)c3ccco3)CC2)c(Cl)c1)c1cccnc1 | 9.32%
42 | COc1cc(/C=N/Nc2snc(SC)c2C#N)ccc1O | 6.81%
43 | CCCCCCCCOC(=O)C[N+](C)(C)C/C=C(/C)Cl.[Br-] | 9.72%
44 | COc1ccc2c(c1)C=C(CN1CCN(C(C)C)C(CCO)C1)CO2 (stereo not drawn) | 5.85%

Row | SMILES | hERG current change (%, negative = inhibition) at 1uM
45 | Cc1ccc(-c2nnc(Oc3ccc(NC(=O)c4ccccc4)cc3)c3ccccc23)cc1 | 12.5%
46 | Cc1nnc(SCC2=C(C(=O)O)N3C(=O)C(NC(=O)COc4ccc(F)cc4)C3SC2)s1 (stereo not drawn) | 18.6%
47 | CC(C)c1ccc(NS(=O)(=O)c2cccc3cccnc23)cc1 | 4.57%
48 | COC(=O)c1cc(S(=O)(=O)NCC2CCN(CCc3ccc(OC)cc3)CC2)cn1C | -17.5%
49 | COc1ccccc1/C=C1\SC(=S)N(CCC(=O)NNC(=O)c2ccccc2O)C1=O | -9.01%
50 | CCSc1nnc(-c2c[nH]c3ccccc23)o1 | 6.31%
51 | Cc1cccc(Cn2nnc3ccccc32)c1O | 11.6%
52 | COCCN1CC(O)=C(c2nc3ccccc3c(=O)[nH]2)C1=N | 16.9%
53 | CN(C)c1ccc(C(=O)NCCCSc2ccccc2)cc1 | 1.77%
54 | O=C1CCCCc2sc(Br)c([N+](=O)[O-])c2N1 | 12%
55 | CN(C)c1nc(N)nc(CSc2nnnn2-c2cccc3ccccc23)n1 | -3.13%
56 | COc1cccc(-n2nnnc2SCC(=O)Nc2ccc(C(C)=O)cc2)c1 | 12.9%
57 | Cc1ccc(C)c(OCc2cc(C(=O)NC(C)c3cnn(C)c3)no2)c1 (stereo not drawn) | 16.9%
58 | O=[N+]([O-])c1cccc(-c2ccc(CN3CCN(c4ccccc4)CC3)o2)c1 | 12.3%
59 | Cc1cccc(Nc2ncnc3onc(-c4ccc(F)cc4)c23)c1C | 10.2%
60 | Cc1ccccc1NC(=O)c1ccccc1-c1ccccc1 | 4.81%
61 | COCCNC(=O)NC(=O)CN1CCCc2ccccc21 | 5.42%
62 | C=CCCN([C@@H](C)C(=O)OC)S(=O)(=O)c1ccccc1Br | 5.26%
63 | COc1ccccc1N1CCN(C(=O)CSc2nc(C)c(Cc3ccccc3)c(=O)[nH]2)CC1 | -0.0558%
64 | COc1ccc2[nH]cc(CCNC(C)=O)c2c1 | 2.27%
65 | CCOC(=O)c1c(NC(=O)COC(=O)c2ccncc2)sc(C)c1C | 3.73%
66 | Cc1ccc(NCC(=O)Nc2cccc(S(=O)(=O)N(C)C)c2)cc1S(=O)(=O)N1CCCCCC1 | 6.36%

Row | SMILES | hERG current change (%, negative = inhibition) at 1uM
67 | CCOC(=O)c1nnn(-c2nc(OC)nc(N(C)C)n2)c1-c1ccccc1 | 4.98%
68 | O=C(C[n+]1cc(-c2ccc(F)cc2)n2c1CCC2)N1c2ccccc2Sc2ccccc21.[Cl-] | 11.1%
69 | Cc1cccc(OCC(=O)Nc2cc(S(=O)(=O)N3CCCCC3)ccc2N2CCN(C)CC2)c1 | -15.6%
70 | N#Cc1ccccc1Sc1ccccc1C(=O)OCC(=O)N1CCN(C(=O)c2ccco2)CC1 | 11.4%
71 | COCCCNC(=O)Cn1c(=O)n(Cc2ccc(F)cc2)c(=O)c2sccc21 | 13.9%
72 | CCOC(=O)c1sc(/N=C/c2c(O)n(-c3cccc(C)c3)c(=O)[nH]c2=O)c(C#N)c1C | 11.4%
73 | CCOC(=O)CSC1=Nc2ccccc2C2=NC(CC(=O)NCc3ccccc3)C(=O)N12 (stereo not drawn) | -1.65%
74 | O=c1cc(CS(=O)(=O)c2ccccc2)nc(-c2ccncc2)[nH]1 | 11.3%
75 | CCCCCCn1c(=O)c(C(=O)Nc2ncccc2O)c(O)c2ccccc21 | 5.73%
76 | Cc1cc(C)cc(N2C(=O)CN(Cc3ccccc3)C2=S)c1 | 2.11%
77 | O=C(O)CSc1nnc(NC(=O)c2ccc3c(c2)OCO3)s1 | 13.1%
78 | COc1ccccc1OCCN(C#N)c1nc(N(C)C)nc(N(C)C)n1 | 17.3%
79 | Cc1cccc(OCc2nnc(SCC(=O)N3c4ccccc4CC3C)n2C)c1C (stereo not drawn) | 6.31%
80 | Cc1ccc(/C=C(\NC(=O)c2ccc(C)cc2)c2nc(=S)[nH][nH]2)cc1 | 2.34%
81 | Cc1ccc(S(=O)(=O)N2CCN(C(=O)C(Cc3ccccc3)NC(=O)c3ccccc3)CC2)cc1 (stereo not drawn) | -5.13%
82 | O=C(Cn1c(CO)nc2ccccc21)NCCc1ccccc1 | 3.12%
83 | S=C(N/N=C/c1ccccc1Cl)Nc1cccc(Cl)c1Cl | 8.18%
84 | CCc1ccccc1NC(=O)C1CCCN1C(=O)Nc1ccc(C)cc1 (stereo not drawn) | 13.3%
85 | CCOc1ccc(Nc2cc(C)nc3nc(C)nn23)cc1 | 1.93%
86 | Cc1cc(C(=O)COC(=O)c2ccccc2O)c(C)n1CC1CCCO1 (stereo not drawn) | -6.31%
87 | O=S(=O)(c1ccc2nc(COc3ccc(Cl)cc3Cl)[nH]c2c1)N1CCOCC1 | 11%
